Results as given in PubChem BioAssay AID1656 (Sanford-Burnham Center for Chemical Genomics, 2009).
The list shows a part of the results. These are further read-outs of the screen, such as a control signal, another cell line or another target. No call is given for them. Most of these compounds were active or inconclusive in the main read-out, so they are no random draw.

Assay: inhibitors of hepatocyte lipid droplet formation, primary screen, imaging, high-throughput imaging, BODIPY stain (AID 1656);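 note: cells counted across two imaged fields per well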
Details: AML12 mouse hepatocytes, oleate lipid droplets, measured here: cell count, cytotoxicity flag, at 6.5 µM
Procedure, shortened: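 System: AML12 hepatocytes (mouse). Probe or stimulus: oleic acid at 100 µM to induce lipid droplet formation. Times: overnight treatment with compound plus oleate. Detection: Image-based BODIPY and DAPI two-channel analysis. Evaluation: percent inhibition of filter-corrected integrated lipid droplet intensity per well.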

Compound | cell count
COc1ccccc1Nc1nnc(SCC(=O)Nc2nc(-c3ccc(F)cc3)cs2)s1 | 704 cells
CCCCNC(=O)C1CCN(C(=O)Nc2ccc(C)cc2)CC1 | 730 cells
CCOc1ccc(C(=O)OCC(=O)Nc2cc(C)on2)cc1OCC | 768 cells
C=C(C)C(=O)N1CC2(CC(c3cccc(NC(=O)/C=C\C=C/C)c3)=NO2)C[C@H]1C(N)=O (some centres undefined) | 762 cells
O=C(Cc1coc2ccc3ccccc3c12)NC1CCCc2ccccc21 (centres undefined) | 610 cells
Cc1ccc(OCC(=O)NCc2ccc3c(c2)OCO3)c([N+](=O)[O-])n1 | 695 cells
Cc1ccc(NC(=O)CCCc2c[nH]c3ccccc23)nc1 | 843 cells
CN(C)S(=O)(=O)c1ccc(N2CCCC2)c(C(=O)Nc2nc(-c3ccc(F)cc3)cs2)c1 | 280 cells
CCOc1ccc(CCNC(=O)COC(=O)c2ccc(OC)c(OC)c2OC)cc1OCC | 737 cells
CC1CCCN(C2=C(NS(=O)(=O)c3ccc(Br)cc3)C(=O)c3ccccc3C2=O)C1 (centres undefined) | 680 cells
N=c1c(C(=O)NCCN2CCOCC2)cc2c(=O)n3ccccc3nc2n1CCCN1CCOCC1 | 717 cells
COc1cc2c3nnc(-c4ccc(F)cc4)c-3cn(Cc3cccc(C)c3)c2cc1OC | 678 cells
COc1ccccc1NS(=O)(=O)c1cc(NC(=O)c2cc3ccccc3oc2=O)ccc1C | 680 cells
Cc1ccc(N(C(=O)CCl)C(C(=O)NC2CCCCC2)c2cccnc2)cc1C (centres undefined) | 107 cells
COC(=O)c1c(N2C(=O)[C@H]3[C@@H](C2=O)[C@]2(C(=O)Nc4c(C)cc(C)cc42)N2CCC[C@@H]32)sc(C)c1C | 693 cells
O=C(NCCc1nc2ccccc2[nH]1)c1ccc(Br)o1 | 798 cells
CCCCn1c(O)c(/C=C/C=C/C=Nc2ccccc2)sc1=S | 691 cells
COC(=O)c1cc(C(=O)N2CCN(c3cccc(Cl)c3)CC2)cc([N+](=O)[O-])c1 | 280 cells
CCOC(=O)C(=NC(C)CC)NNc1ccc(Br)cc1 (centres undefined) | 283 cells
C/C(=C\c1cccc(Cl)c1Cl)C(=O)c1c(C)cc(C)[nH]c1=O | 821 cells
CCC(=O)N1N=C(c2cccc(NS(C)(=O)=O)c2)CC1c1cccs1 (centres undefined) | 273 cells
CN1C(=O)[C@H]2[C@@H](C3CC3)N3C(=O)CN(Cc4ccccn4)C(=O)[C@@]3(Cc3ccccc3)[C@H]2C1=O | 810 cells
CCCCN(C(=O)CCC(=O)Nc1cc(C)on1)C(C(=O)NC1CCCC1)c1ccc(OCC)cc1 (centres undefined) | 797 cells
O=C(CCl)N=c1sccn1Cc1ccccc1Cl | 64 cells
CC(C)c1ccc(C2C3=C(COC3=O)Nc3cc4c(cc32)OCO4)cc1 (centres undefined) | 227 cells

Compound | cell count
CC(C)Oc1ccc(C(=O)OC(C)C(=O)NC2CCCCC2C)cc1 (centres undefined) | 718 cells
Cc1cc2cc(CCNC(=O)c3cccc([N+](=O)[O-])c3)c(=O)[nH]c2cc1C | 280 cells
O=c1cc(-c2ccccc2)[nH]c2ccc(F)cc12 | 177 cells
CC(C)(C)OC(=O)N1CCN(c2ccc(NC(=O)Cn3nnc(-c4ccccc4)n3)cc2)CC1 | 635 cells
O=C(CNCCC1=CCCCC1)Nc1ccccc1N1CCCCC1 | 474 cells
Cc1ccc(C(=O)Sc2cccccc2=O)cc1 | 293 cells
CCOc1ccc(CCNC(=O)CCS(=O)(=O)c2ccc(C)cc2)cc1OCC | 401 cells
O=c1[nH]c(CSc2nnc(-c3ccccc3)n2-c2ccccc2)nc2ccccc12 | 728 cells
CCOc1ccccc1Nc1nnc(SCC(=O)Nc2nc(-c3ccc(OC)cc3)cs2)s1 | 625 cells
CC(C)COc1cccc(-c2cc(C(=O)Nc3ccon3)c3ccccc3n2)c1 | 796 cells
CC1CN(c2ccc(C(F)(F)F)cc2[N+](=O)[O-])CCN1S(C)(=O)=O (centres undefined) | 265 cells
COc1nc(C)nc2c1ccc1ccccc12 | 744 cells
COc1ccc(C(C(=O)NC(C)(C)C)N(Cc2ccccc2)C(=O)CCC(=O)Nc2cc(C)on2)cc1 (centres undefined) | 706 cells
Cc1cccc(Oc2ccc(Cl)cc2N)c1 | 720 cells
CCOc1ccc(C(=O)Nc2ccc(NC(=S)NC(=O)CC)cc2)cc1Cl | 692 cells
O=C(NCc1ccco1)c1ccc(Cn2c(=O)c3ccccc3n(Cc3ccc(Cl)cc3)c2=O)cc1 | 805 cells
COc1ccc(CNC(=O)CCCCCn2c(SCC#N)nc3cc4c(cc3c2=O)OCO4)cc1 | 671 cells
COc1ccccc1NC(=O)c1cnc(Nc2ccccc2OC)c2ccccc12 | 253 cells
CCOc1ccc(CCNC(=O)CCOc2cc(C)ccc2C)cc1OCC | 770 cells
COc1ccccc1NC(=S)N(Cc1ccco1)Cc1cc2ccc(C)c(C)c2[nH]c1=O | 148 cells
O=C1c2ccccc2C2=Nc3ccccc3SC(c3cccc(F)c3)C12 (centres undefined) | 650 cells
CC(=O)c1c(C)n([O-])c2cc(F)c(F)cc2[n+]1=O | 132 cells
COc1ccc(C(C(=O)NC(C)(C)C)N(Cc2cccs2)C(=O)CCC(=O)Nc2cc(C)on2)cc1 (centres undefined) | 767 cells
Clc1cccc(Nc2nc(-c3ccncc3)cs2)c1 | 319 cells
CCOc1ccccc1N=Nc1c(C)[nH]n(-c2ccccc2)c1=O | 866 cells

Compound | cell count
Cc1cc2c(cc1S(=O)(=O)Nc1c(C)cccc1C)n(C)c(=O)c(=O)n2C | 791 cells
COc1ccc2c(c1)c(CC(=O)Nc1ccc(C(C)=O)cc1)c(C)n2C(=O)c1ccc(Cl)cc1 | 691 cells
COc1ccccc1C1(O)CCN(CC(=O)Nc2nc(-c3ccccc3)cs2)CC1 | 705 cells
COc1ccc(-n2c(SCc3ccc([N+](=O)[O-])cc3)nnc2-c2ccccc2)cc1 | 254 cells
COc1ccc(C(C(=O)NC2CCCCC2)N(C(=O)CCl)c2cccc(Cl)c2)cc1 (centres undefined) | 126 cells
Nc1nc(-c2ccccc2)c(N=Nc2cccc3ccccc23)s1 | 346 cells
CCCCc1ccc(NC(=O)CSc2nc3ncccc3[nH]2)cc1 | 759 cells
CCOC(=O)N1CCN(C(=O)CSCC(=O)Nc2nc(-c3ccc(-c4ccccc4)cc3)cs2)CC1 | 640 cells
O=C(c1ccco1)N1CCN(C(=O)N2c3ccccc3Sc3ccccc32)CC1 | 292 cells
CCCCOc1ccc(C(=O)Nc2cc(C)c(OCC(=O)N3CCOCC3)c(C)c2)cc1 | 728 cells
CCOc1ccc(CCNC(=O)COC(=O)c2cc(OC)c(OC)c(OC)c2)cc1OCC | 689 cells
Cc1ccsc1/C=N/NC(=O)c1cc(-c2ccncc2)nc2ccccc12 | 74 cells
CCn1c(=O)c2cc(C(=O)NCCC(C)C)sc2c2ccccc21 | 815 cells
CCOC(=O)c1ccc(S(=O)(=O)Nc2ccc(N3CCOCC3)cc2)cc1 | 785 cells
COc1ccc(NC(=S)NC(=O)c2ccccc2Cl)cc1 | 690 cells
COc1ccc(N=C2C(=Nc3ccc(OC)cc3)N(c3ccc(OC)cc3)C(=S)N2C)cc1 | 792 cells
CCOC(=O)c1c(C)[nH]c(N=Nc2ccccc2C)c1C | 719 cells
COC(=O)/C(=C/c1ccc2c(c1)c1ccccc1n2C)NC(=O)c1ccccc1 | 713 cells
Cc1nnc(SCC(=O)Nc2cc(-c3cc(C)c(C)cc3C)nn2-c2ccccc2)s1 | 727 cells
CC(C)c1ccc(/C=C(\c2nc3ccccc3[nH]2)S(=O)(=O)c2ccccc2)cc1 | 448 cells
Cc1nn(-c2ccccc2)c(C)c1/C=N/NC(=O)c1cc(-c2cccs2)[nH]n1 | 243 cells
COc1ccc(CCNC(=O)C(=O)NCC2OCCN2S(=O)(=O)c2ccc(Br)cc2)cc1OC (centres undefined) | 284 cells
COc1c([N+](=O)[O-])cc(C(=O)NNC(=O)c2ccc(C)cc2)cc1[N+](=O)[O-] | 761 cells
CCc1ccc(OCc2ccc(C(=O)O)o2)cc1 | 822 cells
Cc1ccc(-n2nc3c(=O)n(C(C)C(=O)NCCC4=CCCCC4)nc(C)c3c2C)cc1 (centres undefined) | 729 cells

Compound | cell count
COc1ccc(C(=O)CSc2nnc(CC(=O)Nc3ccccc3OC)n2C)cc1 | 755 cells
CCOC(=O)CSC1=C(C#N)C(c2ccc(C)o2)CC(=O)N1 (centres undefined) | 128 cells
COc1cc2c(cc1NC(=O)COC(=O)/C=C/c1ccccc1)oc1ccccc12 | 209 cells
Cc1ccc(C(=O)c2cc([N+](=O)[O-])ccc2N2CCCCC2)cc1 | 143 cells
CCOc1ccc(CCNC(=O)CSc2cc(=O)n(C)c3cc(Cl)ccc23)cc1OCC | 695 cells
CCCOC(=O)c1ccc(NC(=O)/C=C/c2cccs2)cc1 | 734 cells
O=C(Nc1ccc(Cl)cc1C(=O)NCc1cccnc1)c1ccc(Cl)cc1Cl | 584 cells
COc1ccccc1/C=C1/SC(=O)N(CCC(=O)Nc2ccc(S(=O)(=O)Nc3nccs3)cc2)C1=O | 175 cells
O=C(Cn1nc(-c2cccc(Cl)c2)ccc1=O)Nc1ccc(C(=O)NC2CC2)cc1 | 688 cells
CC(C)Oc1ccc(C(=O)NC(=S)Nc2ccc(CN3CCOCC3)cc2)cc1 | 298 cells
COc1ccc(-c2coc3cc4oc(=O)c5ccccc5c4cc23)cc1F | 227 cells
Cc1cc(N2CCOCC2)n2nc(C)c(-c3ccc(Cl)cc3)c2n1 | 810 cells
COc1ccccc1N(CC(=O)N1CCCC1)S(=O)(=O)c1ccc(C)cc1 | 240 cells
CSc1c(CC(=O)Nc2ccccc2C(F)(F)F)n(Cc2ccccc2)c2ccccc12 | 582 cells
CCOC(=O)C1=C(C)N=c2s/c(=C3\C(=O)Nc4ccccc43)c(=O)n2C1c1ccc2c(c1)OCO2 (centres undefined) | 634 cells
Cc1ccc(C(=O)Nc2ncc(Cc3ccc(SC(F)F)cc3)s2)cc1 | 219 cells
CC1CCN(C2=C(NS(=O)(=O)c3ccc(Cl)cc3)C(=O)c3ccccc3C2=O)CC1 | 557 cells
CCOC(=O)/C(C(=O)Nc1ccccc1Cl)=C1/NC(C)(C)Cc2ccccc21 | 682 cells
Cc1ccccc1OCc1nnc(SCC(=O)Nc2ccc3c(c2)oc2ccccc23)n1C | 612 cells
Cc1cc(=O)oc2cc(OCC(=O)NC3CCN(Cc4ccccc4)CC3)c(Cl)cc12 | 709 cells
CCN(CCn1cccn1)C(=O)c1cc(COc2ccc(F)cc2Cl)on1 | 655 cells
O=C/C=C/c1c(-c2ccccc2)cc2oc3ccccc3cc1-2 | 661 cells
CCCCc1ccc(N=N/C(C(=O)Nc2cc(OC)c(NC(C)=O)cc2OC)=C(/C)O)cc1 | 513 cells
COc1ccc(C)cc1NC(=O)C/C(C)=N/NC(=O)Cc1cccc2ccccc12 | 836 cells
